Measurements reported in paper PMC8633501.
No constants are given. Whether binding was seen depends on the method and setting. Binding seen in cells or lysates may run through a third protein. Some binding calls cover weakened binding; strength is not graded here. Sequences can lack the tags named with a protein.

T1: ROC5 expressed in rice protoplasts (ROC5-GFP and ROC5-His) (rice (Oryza sativa L.)) (UniProt Q6EPF0)
T1 sequence: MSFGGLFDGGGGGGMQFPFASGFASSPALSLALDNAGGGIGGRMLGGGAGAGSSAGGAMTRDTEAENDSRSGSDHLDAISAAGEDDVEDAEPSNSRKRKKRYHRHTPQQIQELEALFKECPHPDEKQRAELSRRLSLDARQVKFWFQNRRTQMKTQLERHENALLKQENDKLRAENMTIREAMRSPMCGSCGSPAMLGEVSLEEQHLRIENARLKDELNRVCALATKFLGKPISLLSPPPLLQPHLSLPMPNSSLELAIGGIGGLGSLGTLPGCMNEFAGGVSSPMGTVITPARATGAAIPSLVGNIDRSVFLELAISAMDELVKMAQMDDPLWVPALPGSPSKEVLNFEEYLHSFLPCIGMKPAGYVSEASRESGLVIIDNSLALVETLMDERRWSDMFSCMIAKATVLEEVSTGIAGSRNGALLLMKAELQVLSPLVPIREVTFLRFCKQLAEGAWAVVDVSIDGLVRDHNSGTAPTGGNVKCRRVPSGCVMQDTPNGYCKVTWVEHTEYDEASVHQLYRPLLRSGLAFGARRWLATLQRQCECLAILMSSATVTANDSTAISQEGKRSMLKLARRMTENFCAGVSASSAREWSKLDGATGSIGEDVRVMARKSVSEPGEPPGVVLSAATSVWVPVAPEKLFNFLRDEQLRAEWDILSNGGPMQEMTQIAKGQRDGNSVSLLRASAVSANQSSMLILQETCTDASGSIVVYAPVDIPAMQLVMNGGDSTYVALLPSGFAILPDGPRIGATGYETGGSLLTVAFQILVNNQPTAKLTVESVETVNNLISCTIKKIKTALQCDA

T2: ROC5 BiFC fusions (ROC5-nYFP and ROC5-cYFP) (rice (Oryza sativa L.)) (UniProt Q6EPF0)
T2 sequence: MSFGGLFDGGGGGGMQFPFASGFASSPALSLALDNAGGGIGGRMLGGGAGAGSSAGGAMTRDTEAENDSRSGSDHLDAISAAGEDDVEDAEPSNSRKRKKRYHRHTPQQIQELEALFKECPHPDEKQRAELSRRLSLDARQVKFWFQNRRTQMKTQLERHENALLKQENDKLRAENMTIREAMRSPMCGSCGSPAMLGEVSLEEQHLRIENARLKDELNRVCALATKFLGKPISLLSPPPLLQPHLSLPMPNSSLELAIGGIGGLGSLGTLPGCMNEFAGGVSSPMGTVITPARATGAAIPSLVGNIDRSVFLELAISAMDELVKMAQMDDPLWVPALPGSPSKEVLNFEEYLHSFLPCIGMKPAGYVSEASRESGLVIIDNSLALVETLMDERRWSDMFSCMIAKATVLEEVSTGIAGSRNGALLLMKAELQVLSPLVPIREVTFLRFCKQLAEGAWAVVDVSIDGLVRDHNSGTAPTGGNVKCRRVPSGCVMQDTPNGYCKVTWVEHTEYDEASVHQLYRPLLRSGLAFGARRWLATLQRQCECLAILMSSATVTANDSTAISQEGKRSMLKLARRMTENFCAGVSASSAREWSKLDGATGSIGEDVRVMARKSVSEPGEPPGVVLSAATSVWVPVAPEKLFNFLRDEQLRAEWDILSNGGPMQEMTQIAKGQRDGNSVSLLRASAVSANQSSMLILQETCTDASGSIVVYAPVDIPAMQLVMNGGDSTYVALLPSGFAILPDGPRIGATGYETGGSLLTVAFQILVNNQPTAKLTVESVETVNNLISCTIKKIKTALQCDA

T3: ROC8 BiFC fusions (ROC8-nYFP and ROC8-cYFP) (rice (Oryza sativa L.)) (UniProt Q69T58)
T3 sequence: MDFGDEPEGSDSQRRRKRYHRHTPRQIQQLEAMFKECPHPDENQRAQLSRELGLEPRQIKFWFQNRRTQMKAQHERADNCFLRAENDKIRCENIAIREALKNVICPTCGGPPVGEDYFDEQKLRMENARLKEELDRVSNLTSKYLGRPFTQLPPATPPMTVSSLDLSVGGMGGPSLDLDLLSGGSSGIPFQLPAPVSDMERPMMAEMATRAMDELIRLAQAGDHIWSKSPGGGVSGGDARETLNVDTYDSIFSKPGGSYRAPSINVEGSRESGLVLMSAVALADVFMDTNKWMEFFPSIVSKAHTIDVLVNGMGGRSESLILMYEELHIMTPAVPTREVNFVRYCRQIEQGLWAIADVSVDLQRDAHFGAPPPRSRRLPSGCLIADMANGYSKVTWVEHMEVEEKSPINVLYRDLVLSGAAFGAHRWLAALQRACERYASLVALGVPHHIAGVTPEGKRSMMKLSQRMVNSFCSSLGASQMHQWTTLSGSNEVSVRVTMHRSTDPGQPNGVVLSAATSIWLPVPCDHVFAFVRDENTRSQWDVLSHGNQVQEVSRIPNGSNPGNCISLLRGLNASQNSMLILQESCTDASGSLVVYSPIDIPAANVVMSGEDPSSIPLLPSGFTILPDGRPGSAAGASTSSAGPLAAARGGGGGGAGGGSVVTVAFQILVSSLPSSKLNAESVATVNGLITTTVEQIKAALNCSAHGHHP


How the values were obtained:
[1] = target: T1, ROC5 expressed in rice protoplasts (ROC5-GFP and ROC5-His) (rice (Oryza sativa L.)); experiment: co-IP; rice protoplasts transfected and incubated overnight; extract (150mM KCl, 50mM HEPES pH7.5, 0.4% Triton-X 100, 1mM DTT) with GFP-Trap magnetic beads 2 h at 4°C; immunoblot with anti-GFP, anti-Flag, anti-His; in Figure 4 also with a third co-transfected protein
[2] = target: ROC8 expressed in rice protoplasts (ROC8-Flag and ROC8-GFP) (rice (Oryza sativa L.)) (UniProt Q69T58); experiment: as above
[3] = target: T2, ROC5 BiFC fusions (ROC5-nYFP and ROC5-cYFP) (rice (Oryza sativa L.)); experiment: split reporter; competition: nYFP and cYFP fusions of one protein co-expressed in tobacco leaves with the other protein as a third, or with a truncated control (P6, X7)
[4] = target: T2, ROC5 BiFC fusions (ROC5-nYFP and ROC5-cYFP) (rice (Oryza sativa L.)); experiment: split reporter; nYFP and cYFP fusions co-infiltrated by Agrobacterium into N. benthamiana leaves with p19 and the nuclear marker D53-mCherry; confocal microscopy 48 to 72 h after infiltration
[5] = target: T3, ROC8 BiFC fusions (ROC8-nYFP and ROC8-cYFP) (rice (Oryza sativa L.)); experiment: split reporter; competition: nYFP and cYFP fusions of one protein co-expressed in tobacco leaves with the other protein as a third, or with a truncated control (P6, X7)

Binder	binding [1]	binding [3]	also measured
ROC8 co-expressed as competitor in the BiFC assay (protein, UniProt Q69T58 1-710) MDFGDEPEGSDSQRRRKRYHRHTPRQIQQLEAMFKECPHPDENQRAQLSRELGLEPRQIKFWFQNRRTQMKAQHERADNCFLRAENDKIRCENIAIREALKNVICPTCGGPPVGEDYFDEQKLRMENARLKEELDRVSNLTSKYLGRPFTQLPPATPPMTVSSLDLSVGGMGGPSLDLDLLSGGSSGIPFQLPAPVSDMERPMMAEMATRAMDELIRLAQAGDHIWSKSPGGGVSGGDARETLNVDTYDSIFSKPGGSYRAPSINVEGSRESGLVLMSAVALADVFMDTNKWMEFFPSIVSKAHTIDVLVNGMGGRSESLILMYEELHIMTPAVPTREVNFVRYCRQIEQGLWAIADVSVDLQRDAHFGAPPPRSRRLPSGCLIADMANGYSKVTWVEHMEVEEKSPINVLYRDLVLSGAAFGAHRWLAALQRACERYASLVALGVPHHIAGVTPEGKRSMMKLSQRMVNSFCSSLGASQMHQWTTLSGSNEVSVRVTMHRSTDPGQPNGVVLSAATSIWLPVPCDHVFAFVRDENTRSQWDVLSHGNQVQEVSRIPNGSNPGNCISLLRGLNASQNSMLILQESCTDASGSLVVYSPIDIPAANVVMSGEDPSSIPLLPSGFTILPDGRPGSAAGASTSSAGPLAAARGGGGGGAGGGSVVTVAFQILVSSLPSSKLNAESVATVNGLITTTVEQIKAALNCSAHGHHP		binds	
ROC5 expressed in rice protoplasts (ROC5-GFP and ROC5-His) (protein, UniProt Q6EPF0 1-804) MSFGGLFDGGGGGGMQFPFASGFASSPALSLALDNAGGGIGGRMLGGGAGAGSSAGGAMTRDTEAENDSRSGSDHLDAISAAGEDDVEDAEPSNSRKRKKRYHRHTPQQIQELEALFKECPHPDEKQRAELSRRLSLDARQVKFWFQNRRTQMKTQLERHENALLKQENDKLRAENMTIREAMRSPMCGSCGSPAMLGEVSLEEQHLRIENARLKDELNRVCALATKFLGKPISLLSPPPLLQPHLSLPMPNSSLELAIGGIGGLGSLGTLPGCMNEFAGGVSSPMGTVITPARATGAAIPSLVGNIDRSVFLELAISAMDELVKMAQMDDPLWVPALPGSPSKEVLNFEEYLHSFLPCIGMKPAGYVSEASRESGLVIIDNSLALVETLMDERRWSDMFSCMIAKATVLEEVSTGIAGSRNGALLLMKAELQVLSPLVPIREVTFLRFCKQLAEGAWAVVDVSIDGLVRDHNSGTAPTGGNVKCRRVPSGCVMQDTPNGYCKVTWVEHTEYDEASVHQLYRPLLRSGLAFGARRWLATLQRQCECLAILMSSATVTANDSTAISQEGKRSMLKLARRMTENFCAGVSASSAREWSKLDGATGSIGEDVRVMARKSVSEPGEPPGVVLSAATSVWVPVAPEKLFNFLRDEQLRAEWDILSNGGPMQEMTQIAKGQRDGNSVSLLRASAVSANQSSMLILQETCTDASGSIVVYAPVDIPAMQLVMNGGDSTYVALLPSGFAILPDGPRIGATGYETGGSLLTVAFQILVNNQPTAKLTVESVETVNNLISCTIKKIKTALQCDA	binds		
ROC5 co-expressed as competitor in the BiFC assay (protein, UniProt Q6EPF0 1-804) MSFGGLFDGGGGGGMQFPFASGFASSPALSLALDNAGGGIGGRMLGGGAGAGSSAGGAMTRDTEAENDSRSGSDHLDAISAAGEDDVEDAEPSNSRKRKKRYHRHTPQQIQELEALFKECPHPDEKQRAELSRRLSLDARQVKFWFQNRRTQMKTQLERHENALLKQENDKLRAENMTIREAMRSPMCGSCGSPAMLGEVSLEEQHLRIENARLKDELNRVCALATKFLGKPISLLSPPPLLQPHLSLPMPNSSLELAIGGIGGLGSLGTLPGCMNEFAGGVSSPMGTVITPARATGAAIPSLVGNIDRSVFLELAISAMDELVKMAQMDDPLWVPALPGSPSKEVLNFEEYLHSFLPCIGMKPAGYVSEASRESGLVIIDNSLALVETLMDERRWSDMFSCMIAKATVLEEVSTGIAGSRNGALLLMKAELQVLSPLVPIREVTFLRFCKQLAEGAWAVVDVSIDGLVRDHNSGTAPTGGNVKCRRVPSGCVMQDTPNGYCKVTWVEHTEYDEASVHQLYRPLLRSGLAFGARRWLATLQRQCECLAILMSSATVTANDSTAISQEGKRSMLKLARRMTENFCAGVSASSAREWSKLDGATGSIGEDVRVMARKSVSEPGEPPGVVLSAATSVWVPVAPEKLFNFLRDEQLRAEWDILSNGGPMQEMTQIAKGQRDGNSVSLLRASAVSANQSSMLILQETCTDASGSIVVYAPVDIPAMQLVMNGGDSTYVALLPSGFAILPDGPRIGATGYETGGSLLTVAFQILVNNQPTAKLTVESVETVNNLISCTIKKIKTALQCDA			binding [5]: binds

Now from value to binder, other results behind:

binding [1]	binding [3]	Binder	also measured
binds		ROC8 expressed in rice protoplasts (ROC8-Flag and ROC8-GFP) (protein, UniProt Q69T58 1-710) MDFGDEPEGSDSQRRRKRYHRHTPRQIQQLEAMFKECPHPDENQRAQLSRELGLEPRQIKFWFQNRRTQMKAQHERADNCFLRAENDKIRCENIAIREALKNVICPTCGGPPVGEDYFDEQKLRMENARLKEELDRVSNLTSKYLGRPFTQLPPATPPMTVSSLDLSVGGMGGPSLDLDLLSGGSSGIPFQLPAPVSDMERPMMAEMATRAMDELIRLAQAGDHIWSKSPGGGVSGGDARETLNVDTYDSIFSKPGGSYRAPSINVEGSRESGLVLMSAVALADVFMDTNKWMEFFPSIVSKAHTIDVLVNGMGGRSESLILMYEELHIMTPAVPTREVNFVRYCRQIEQGLWAIADVSVDLQRDAHFGAPPPRSRRLPSGCLIADMANGYSKVTWVEHMEVEEKSPINVLYRDLVLSGAAFGAHRWLAALQRACERYASLVALGVPHHIAGVTPEGKRSMMKLSQRMVNSFCSSLGASQMHQWTTLSGSNEVSVRVTMHRSTDPGQPNGVVLSAATSIWLPVPCDHVFAFVRDENTRSQWDVLSHGNQVQEVSRIPNGSNPGNCISLLRGLNASQNSMLILQESCTDASGSLVVYSPIDIPAANVVMSGEDPSSIPLLPSGFTILPDGRPGSAAGASTSSAGPLAAARGGGGGGAGGGSVVTVAFQILVSSLPSSKLNAESVATVNGLITTTVEQIKAALNCSAHGHHP	binding [2]: binds
	binds	ROC5 BiFC fusions (ROC5-nYFP and ROC5-cYFP) (protein, UniProt Q6EPF0 1-804) MSFGGLFDGGGGGGMQFPFASGFASSPALSLALDNAGGGIGGRMLGGGAGAGSSAGGAMTRDTEAENDSRSGSDHLDAISAAGEDDVEDAEPSNSRKRKKRYHRHTPQQIQELEALFKECPHPDEKQRAELSRRLSLDARQVKFWFQNRRTQMKTQLERHENALLKQENDKLRAENMTIREAMRSPMCGSCGSPAMLGEVSLEEQHLRIENARLKDELNRVCALATKFLGKPISLLSPPPLLQPHLSLPMPNSSLELAIGGIGGLGSLGTLPGCMNEFAGGVSSPMGTVITPARATGAAIPSLVGNIDRSVFLELAISAMDELVKMAQMDDPLWVPALPGSPSKEVLNFEEYLHSFLPCIGMKPAGYVSEASRESGLVIIDNSLALVETLMDERRWSDMFSCMIAKATVLEEVSTGIAGSRNGALLLMKAELQVLSPLVPIREVTFLRFCKQLAEGAWAVVDVSIDGLVRDHNSGTAPTGGNVKCRRVPSGCVMQDTPNGYCKVTWVEHTEYDEASVHQLYRPLLRSGLAFGARRWLATLQRQCECLAILMSSATVTANDSTAISQEGKRSMLKLARRMTENFCAGVSASSAREWSKLDGATGSIGEDVRVMARKSVSEPGEPPGVVLSAATSVWVPVAPEKLFNFLRDEQLRAEWDILSNGGPMQEMTQIAKGQRDGNSVSLLRASAVSANQSSMLILQETCTDASGSIVVYAPVDIPAMQLVMNGGDSTYVALLPSGFAILPDGPRIGATGYETGGSLLTVAFQILVNNQPTAKLTVESVETVNNLISCTIKKIKTALQCDA	binding [4]: binds
